{"source": "PubChem BioAssay (NCATS)", "note": "The shares of active, inactive and inconclusive entries below differ from those in the screen. Potencies beside an inconclusive call are fits to weak or partial responses and may not hold up. Activity calls are given as the source filed them. Calls come from the whole dose curve; as a rule, active = well fitted cell-killing curve with a large enough effect; inconclusive = small, poorly fitted or top-dose-only effect, or effect the other way; inactive = flat fitted curve, though single readings scatter.", "data": [{"system": "PA-1", "assay": "Primary qHTS to identify gynecologic anti-cancer compounds using libraries of approved drugs and bioactive compounds (AID 1345084); note: potency is the fitted concentration of half-maximal effect; nearly all actives have a fitted effect of over 55% in size; tags give direction and shape of the fitted curve", "conditions": "Gynecologic cancer cell panel viability, ATPlite luminescence, 48 h; series mostly up to 57.5 µM", "method_in_brief": "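Cytotoxicity screen measuring ATP content by luciferase luminescence. Each compound is applied at five concentrations for 48 h at 37 C with 5% CO2.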", "values": [{"compound": "CC(=O)NC1=NN(C(C)=O)C(C)(c2ccccc2)S1", "note": "(stereo not drawn)", "Potency": "active: 3.98 µM"}, {"compound": "CNC(=O)c1cccc(-c2ccc3c(N4CCOC[C@@H]4C)nc(N4CCOC[C@@H]4C)nc3n2)c1", "Potency": "active: 1.58 µM"}, {"compound": "Nc1ncnc2c1nc(N)n2[C@@H]1O[C@H](CO)[C@@H](O)[C@H]1O", "Potency": "active: 4.47 µM"}, {"compound": "COc1ccc(F)cc1-c1cc(NC(=O)[C@@H]2CCCNC2)ncc1Cl", "Potency": "active: 0.355 µM"}, {"compound": "CC(CCC1(O)OC2CC3C4CC=C5CC(O[C@@H]6O[C@H](CO)[C@@H](O[C@@H]7O[C@@H](C)[C@H](O)[C@@H](O)[C@H]7O)[C@H](O)[C@H]6O[C@@H]6O[C@@H](C)[C@H](O)[C@@H](O)[C@H]6O)CCC5(C)C4CCC3(C)C2C1C)CO[C@@H]1O[C@H](CO)[C@@H](O)[C@H](O)[C@H]1O", "note": "(stereo partly drawn)", "Potency": "inconclusive: 11.2 µM [cytotoxic, single point]"}, {"compound": "C=C(CCC1=C(C)[C@H]2[C@H](CC3[C@@H]4CC=C5C[C@@H](O)C[C@@H](O)[C@]5(C)C4[C@H](O)C[C@@]32C)O1)CO[C@@H]1O[C@H](CO)[C@@H](O)[C@H](O)[C@H]1O", "note": "(stereo partly drawn)", "Potency": "active: 3.16 µM"}, {"compound": "C=C1C(=O)O[C@H]2/C=C(/C)[C@@H](OC(C)=O)C/C=C(\\C)C[C@@H](OC(=O)/C(=C/C)COC(=O)/C(=C/C)CO)[C@@H]12", "Potency": "inconclusive: 17.8 µM [cytotoxic, single point]"}, {"compound": "O=C(/C=C/c1ccc(O)c(O)c1)O[C@H]1[C@H](OC2CCCCC2O)O[C@H](CO)[C@@H](O)[C@@H]1O", "note": "(stereo partly drawn)", "Potency": "inconclusive: 17.8 µM [cytotoxic, single point]"}]}]}
